Laboratory results as given in PubChem BioAssay (Tox21).
Where “and” joins values, the source holds several entries; their conditions need not be identical. Equal values may be shown once. Inconclusive results, whose numbers are uncertain, are shown with a selection of clear calls. A potency beside an inconclusive call is a rough fit, not a confirmed value. Calls of active or inactive are those of the source. Unless noted, calls come from the whole dose curve; as a rule, active = well fitted curve in the direction sought with a large enough effect in the repeat runs; inconclusive = weak or mixed curves; inactive = no such curve, though single readings can be large; an effect the other way counts as inactive or inconclusive.

test system: not listed separately; test: qHTS assay to identify small molecule agonists of the estrogen receptor beta (ER-beta) signaling pathway - cell viability counter screen (AID 1259380); conditions: ER-beta-bla HEK293T viability, CellTiter-Glo luminescence, 16 h; series mostly up to 92.4 µM; activity change, negative = cytotoxicity: at the top concentration; note: nearly all actives have a fitted effect of over 30% in size
Outline: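 Cells used were ER-beta-UAS-bla HEK293T in medium with 2% charcoal-stripped FBS. They were treated for 16 hr at 37C. Viability came from CellTiter-Glo luminescence.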
% is set by controls: 0 for no effect and ±100 for the full control effect; potency is the fitted concentration of half-maximal effect; tags give direction and shape of the fitted curve.

| SMILES | Potency | activity change, negative = cytotoxicity |
| --- | --- | --- |
| CCc1cc(C2=C(C(=O)O)N(c3ccccc3C(F)(F)F)S(=O)(=O)c3ccccc32)cc2c1OCO2 | active: 15.2 µM |  |
| CCOc1ccccc1N | inconclusive: 4.82 µM [cytotoxic, full curve, poor fit] |  |
| CCCCSCCCC | inconclusive: 1.93 µM [cytotoxic, partial curve, poor fit] |  |
| Nc1cc(S(=O)(=O)O)ccc1S(=O)(=O)O |  | inactive: 6.64% |
| O=S1OCCO1 |  | inactive: 4.98% |
| COc1ccc2c(c1)C(=O)N(CCc1ccc(S(=O)(=O)NC(=O)NC3CCCCC3)cc1)C(=O)C2(C)C | inconclusive: 33.5 µM [cytotoxic, partial curve] |  |
| O=C(O)c1cc(N=Nc2ccc(S(=O)(=O)Nc3ccccn3)cc2)ccc1O | inconclusive: 0.972 µM [cytotoxic, single point] |  |
| FC(F)(F)C(Cl)(Cl)Cl |  | inactive: -10.8% |
| NC(=O)Cn1c(=O)cc(CCN2CCN(c3nccc4sccc34)CC2)c2ccc(F)cc21 | inconclusive: 13.7 µM [cytotoxic, full curve] |  |
| CCCCCC1CCC(=O)O1 (stereo not given) |  | inactive: -0.0607% |
| COC(=O)/C=C/C(C)=C\C=C\C(C)=C\C=C\C=C(C)\C=C\C=C(C)\C=C\C(=O)O |  | inactive: -0.686% |
| CCOc1ccc2c(c1)C(C)CC(C)(C)N2 (stereo not given) |  | inactive: -1.52% |
| COc1ccc2c(c1)c(CC(=O)O)c(C)n2C(=O)c1ccc(Cl)cc1 | inconclusive: 30.8 µM [cytotoxic, partial curve] and inconclusive: 13.7 µM [cytotoxic, full curve, poor fit] and inconclusive: 26.6 µM [cytotoxic] |  |
| CCC(Cc1ccccc1)(C(=O)c1ccc(N2CCOCC2)cc1)N(C)C (stereo not given) | inconclusive: 68.6 µM [cytotoxic, single point] |  |
| CCOC(=O)COc1ccc2c(c1)CC(NCC(O)c1cccc(Cl)c1)CC2 (stereo not given) | inconclusive: 61.6 µM [cytotoxic, single point] |  |
| O=S(=O)(O)c1cc(Cl)c(Cl)cc1Cl | inconclusive: 48.6 µM [cytotoxic, partial curve, poor fit] |  |

test system: not listed separately; test: qHTS assay to identify small molecule antagonists of the estrogen receptor beta (ER-beta) signaling pathway - cell viability counter screen (AID 1259382); conditions: ER-beta-UAS-bla HEK293T viability, CellTiter-Glo luminescence, 16 h; series mostly up to 92.4 µM; activity change, negative = cytotoxicity: at the top concentration; note: nearly all actives have a fitted effect of over 55% in size
Outline: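 Agonist-stimulated (1nM E2) ER-beta-UAS-bla HEK293T cells are incubated with library compounds for 16 hr at 37C. Cell viability is then assessed in the reporter-assay wells by adding CellTiter-Glo and reading luminescence after 30 min.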

| SMILES | Potency | activity change, negative = cytotoxicity |
| --- | --- | --- |
| CCOc1ccccc1N | inconclusive: 5.41 µM [cytotoxic, full curve, poor fit] |  |
| COc1ccc2c(c1)c(CC(=O)O)c(C)n2C(=O)c1ccc(Cl)cc1 | inconclusive: 61.1 µM [cytotoxic, partial curve, poor fit] |  |
| CCN(CC)CCOC(=O)C(c1ccccc1)C1CCCCC1 (stereo not given) |  | inactive: -14.7% [at 42.5 µM] |

test system: not listed separately; test: qHTS assay to identify small molecule agonists or antagonists of the thyroid stimulating hormone receptor (TSHR) signaling pathway - wild type cell line counter screen (AID 1259384; calls by dose curve); conditions: HEK293 wild type, cAMP HTRF counter-screen; cAMP activity change: at 92.4 µM (top of the series), stronger effect = higher value unless noted
Outline: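 Wild-type HEK293 cells were plated 18 h at 37 C/5% CO2, pin-dosed with compound plus Ro20-1724 medium, held 30 min at room temperature, then given cAMP-d2 and anti-cAMP-cryptate; fluorescence was read after 1 h. Fifteen concentrations, triplicate.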

| SMILES | Potency | cAMP activity change |
| --- | --- | --- |
| Oc1ccc(C(O)CNCCCCCCNCC(O)c2ccc(O)c(O)c2)cc1O (stereo not given) | active: 6.19 µM |  |
| O=C(O)c1cc(N=Nc2ccc(S(=O)(=O)Nc3ccccn3)cc2)ccc1O | inconclusive: 68.6 µM [falling, partial curve, poor fit] |  |
| C[C@@H]1O[C@@H](O[C@@H]2[C@@H](O)[C@H](OCCc3ccc(O)c(O)c3)O[C@H](CO[C@@H]3O[C@H](CO)[C@@H](O)[C@H](O)[C@H]3O)[C@H]2OC(=O)/C=C/c2ccc(O)c(O)c2)[C@H](O)[C@H](O)[C@H]1O |  | inconclusive: -3.33% |

target: Thyrotropin receptor (Homo sapiens) (UniProt P16473); test: qHTS assay to identify small molecule antagonists of the thyroid stimulating hormone receptor (TSHR) signaling pathway (AID 1259385; calls by dose curve; note: nearly all actives have a fitted effect of over 20% in size); conditions: TSHR-HEK293 cAMP HTRF, TSH-stimulated antagonist mode; activity change, negative = inhibition: at 92.4 µM (top of the series) unless noted
Sequence of UniProt P16473 (P16473 whole entry, looked up): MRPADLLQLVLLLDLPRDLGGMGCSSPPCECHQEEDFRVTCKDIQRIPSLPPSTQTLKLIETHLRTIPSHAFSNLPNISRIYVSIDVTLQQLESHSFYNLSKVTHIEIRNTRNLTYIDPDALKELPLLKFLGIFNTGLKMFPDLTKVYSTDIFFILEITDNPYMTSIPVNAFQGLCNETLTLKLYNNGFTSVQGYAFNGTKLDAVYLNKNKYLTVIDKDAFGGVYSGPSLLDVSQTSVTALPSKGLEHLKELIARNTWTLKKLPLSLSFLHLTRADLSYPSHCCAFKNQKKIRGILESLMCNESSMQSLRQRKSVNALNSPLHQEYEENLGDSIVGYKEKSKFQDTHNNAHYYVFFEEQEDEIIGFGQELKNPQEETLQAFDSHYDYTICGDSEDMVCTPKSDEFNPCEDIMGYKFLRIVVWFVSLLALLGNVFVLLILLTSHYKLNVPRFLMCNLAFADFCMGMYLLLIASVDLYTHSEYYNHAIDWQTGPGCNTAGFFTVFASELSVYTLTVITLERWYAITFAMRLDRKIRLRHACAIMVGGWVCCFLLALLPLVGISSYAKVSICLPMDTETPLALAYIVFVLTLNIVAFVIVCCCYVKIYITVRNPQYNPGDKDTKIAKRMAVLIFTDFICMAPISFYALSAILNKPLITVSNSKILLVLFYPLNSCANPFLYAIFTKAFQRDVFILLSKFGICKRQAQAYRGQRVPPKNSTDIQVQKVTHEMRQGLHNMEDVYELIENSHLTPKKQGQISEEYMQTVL
Outline: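 TSHR-HEK293 cells were plated and held 18 h at 37C/5% CO2, then given compound plus Ro20-1724 and stimulated with TSH at 1.5 ng/mL final. After 30 min at room temperature, cAMP was detected with cAMP-d2/anti-cAMP-cryptate (1 h) by fluorescence.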

| SMILES | Potency | activity change, negative = inhibition |
| --- | --- | --- |
| O=C(O)c1cc(N=Nc2ccc(S(=O)(=O)Nc3ccccn3)cc2)ccc1O | inconclusive: 68.6 µM [falling, single point] |  |
| CC(C)=CC(=O)O |  | inactive: -9.57% |
| CCCCCC1CCC(=O)O1 (stereo not given) |  | inactive: 1.19% |
| COC(=O)/C=C/C(C)=C\C=C\C(C)=C\C=C\C=C(C)\C=C\C=C(C)\C=C\C(=O)O |  | inactive: 0.573% |
| CCN(CC)CCOC(=O)C(c1ccccc1)C1CCCCC1 (stereo not given) | active: 26.6 µM |  |

test system: not listed separately; test: qHTS assay to identify small molecule agonists of the estrogen receptor alpha (ER-alpha) signaling pathway in the presence of an antagonist - cell viability counter screen (AID 1259386); conditions: VM7Luc4E2 viability, CellTiter-Fluor fluorescence, 22 h; series mostly up to 92.4 µM; activity change, negative = cytotoxicity: at the top concentration;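 note: cells exposed to compounds for 22 h at 37 °C before the viability read; nearly all actives have a fitted effect of over 30% in size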
Outline: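 ICI-182,780 at 10.0nM final accompanies the compound titration (15 concentrations, 22hr, 37C) on VM7Luc4E2 cells. The CellTiter-Fluor fluorescence readout runs in the same wells as the luciferase assay.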

| SMILES | Potency | activity change, negative = cytotoxicity |
| --- | --- | --- |
| CCc1cc(C2=C(C(=O)O)N(c3ccccc3C(F)(F)F)S(=O)(=O)c3ccccc32)cc2c1OCO2 | inconclusive: 13.5 µM [cytotoxic] |  |
| CCOc1ccccc1N | inconclusive: 68.1 µM [cytotoxic, single point] |  |
| Oc1ccc(C(O)CNCCCCCCNCC(O)c2ccc(O)c(O)c2)cc1O (stereo not given) | inconclusive: 26.6 µM [cytotoxic, partial curve] |  |
| NC(=O)Cn1c(=O)cc(CCN2CCN(c3nccc4sccc34)CC2)c2ccc(F)cc21 | inconclusive: 34.4 µM [cytotoxic, partial curve] |  |
| C[C@@H]1O[C@@H](O[C@@H]2[C@@H](O)[C@H](OCCc3ccc(O)c(O)c3)O[C@H](CO[C@@H]3O[C@H](CO)[C@@H](O)[C@H](O)[C@H]3O)[C@H]2OC(=O)/C=C/c2ccc(O)c(O)c2)[C@H](O)[C@H](O)[C@H]1O | inconclusive: 52.7 µM [cytotoxic, partial curve] |  |
| CCCCNc1ccc(NCCCC)c2c1C(=O)c1ccccc1C2=O | inconclusive: 4.11 µM [cytotoxic, full curve] |  |
| COc1ccc2c(c1)c(CC(=O)O)c(C)n2C(=O)c1ccc(Cl)cc1 | inconclusive: 69 µM [cytotoxic, partial curve, poor fit] |  |
| CCC(Cc1ccccc1)(C(=O)c1ccc(N2CCOCC2)cc1)N(C)C (stereo not given) | inconclusive: 68.6 µM [cytotoxic, partial curve] |  |
| NC(=S)Nc1cccc2ccccc12 |  | inactive: 0.0918% [at 8.39 µM] |
| CCN(CC)CCOC(=O)C(c1ccccc1)C1CCCCC1 (stereo not given) | inconclusive: 26.6 µM [cytotoxic, partial curve] |  |
| CC1=NN(c2cc(Cl)c(S(=O)(=O)O)cc2Cl)C(=O)C1N=Nc1ccc(S(=O)(=O)O)cc1 (stereo not given) | active: 61.1 µM |  |
| CCOC(=O)COc1ccc2c(c1)CC(NCC(O)c1cccc(Cl)c1)CC2 (stereo not given) | inconclusive: 30.9 µM [cytotoxic, partial curve] |  |
| Cc1ccc(C)o1 | inconclusive: 0.49 µM [cytotoxic, full curve, poor fit] |  |
